Experimental data taken from the supplement of paper PMC12645437, “Orthogonal IMiD-Degron Pairs Induce Selective Protein Degradation in Cells” (ACS Chemical Biology, 2025).
The other results are listed elsewhere or left out.

Each sequence was assayed against no compound (DMSO) (assay: log2 fold change of degron read counts, EGFP-low vs EGFP+ sorted cells; higher = lower degron-EGFP level without compound (poor expression or instability)). Settings: compound: DMSO control; 18 h.
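Also: jurkat cells carrying a lentiviral library of mutant zinc finger degrons fused to EGFP plus mCherry, mCherry+ cells FACS sorted, degron abundance counted by next-generation sequencing.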

Sequence	log2 fold change of degron read counts
FACNICGAPFTQKGNLLRHIKL	0.64
FNCNICGAHFTQKGNLLRHIKL	-0.585
FTCNICGAVFTQKGNLLRHIKL	-0.512
FICDQCGAIFTQKGNLLRHIKL	-0.974
FMCPICGRHFTQKGNLLRHIKL	0.268
FHCNVCGAGFTQKGNLLRHIKL	-0.481
FGCPICGHEFTQKGNLLRHIKL	-0.608
FDCDQCGAKFTQKGNLLRHIKL	-3.3
FKCNQCGRLFTQKGNLLRHIKL	0.137
FWCDICGAEFTQKGNLLRHIKL	-1.69
FLCEICGAPFTQKGNLLRHIKL	-0.295
LCCEICGFMCTQKGNLLRHIKL	0.0505
FLCNQCGAGFTQKGNLLRHIKL	-0.315
LNCNQCGFGCTQKGNLLRHIKL	1.44
FSCPICGAPFTQKGNLLRHIKL	0.617
FYCNQCGHHFTQKGNLLRHIKL	0.573
FACNICGAEFTQKGNLLRHIKL	-0.909
FDCEVCGALFTQKGNLLRHIKL	-0.0743
FWCPICGHIFTQKGNLLRHIKL	1.51
FLCNICGANFTQKGNLLRHIKL	-0.431
FMCEICGHMFTQKGNLLRHIKL	-1.05
LCCPICGFFCTQKGNLLRHIKL	1.77
FYCPICGHGFTQKGNLLRHIKL	-0.639
FFCEICGHCFTQKGNLLRHIKL	-0.443
FDCPICGHLFTQKGNLLRHIKL	-0.533

Sequence	log2 fold change of degron read counts
FDCEICGHSFTQKGNLLRHIKL	-1.4
FDCNICGALFTQKGNLLRHIKL	0.164
FGCPICGAWFTQKGNLLRHIKL	0.945
FHCEICGRRFTQKGNLLRHIKL	-0.672
FACPICGHYFTQKGNLLRHIKL	0.279
FYCNVCGAHFTQKGNLLRHIKL	-0.214
FECPQCGANFTQKGNLLRHIKL	-1.33
FWCNVCGAAFTQKGNLLRHIKL	0.0742
FRCPVCGAFFTQKGNLLRHIKL	0.832
LLCNQCGFCCTQKGNLLRHIKL	0.891
FGCSVCGHFFTQKGNLLRHIKL	1.09
FDCEQCGAIFTQKGNLLRHIKL	-0.723
FICNQCGHYFTQKGNLLRHIKL	0.582
FLCNQCGRTFTQKGNLLRHIKL	-1.4
FNCNQCGRCFTQKGNLLRHIKL	-0.102
FSCPQCGAYFTQKGNLLRHIKL	-0.633
FICEICGHIFTQKGNLLRHIKL	-0.306
LFCNQCGFHCTQKGNLLRHIKL	1.33
FYCNQCGAAFTQKGNLLRHIKL	-0.511
LQCEICGFICTQKGNLLRHIKL	-0.173
FQCNQCGHRFTQKGNLLRHIKL	-0.478
FKCPICGHAFTQKGNLLRHIKL	-0.538
FQCSVCGHHFTQKGNLLRHIKL	-0.49
FICPICGRAFTQKGNLLRHIKL	-0.205
FHCEICGARFTQKGNLLRHIKL	-1.51
